Assay results reported in patent US8318743B2, “Medicament for the enhancement of cognitive function and neuroprotection” (Egis Gyogyszergyar Nyilvanosan Mukodo Reszvenytarsasag, priority 2006, dated 2012).

How the values were obtained:
Male SPRD rats [1] = conditions: for Dead cerebral volume mm^3 ± SE: 48 hours after surgery; for Effect %: dead cerebral volume versus control
Male SPRD rats [2] = experiment: scopolamine-induced memory deficit in eight-arm radial maze; assay type: in vivo, rat; conditions: for degradation of memory resulting from scopolamine treatment: 0.01 mg/kg intraperitoneally, all three parameters
Description: The eight-arm radial maze test is suitable for the study of learning and memory processes and also for the screening of drug candidates influencing such processes.
The apparatus consists of an octagonal central stage (diameter 30 cm, height 25 cm) and eight arms of 70 cm length having 11 cm height attached to the central stage and having their opposite end closed by a feed container. The base of the maze is stainless steel, the walls and the ceiling are made of plexiglass. The feed containers are made of stainless steel.
The light-dark cycle of the animals is 12-12 hours, and the light is switched on at 7:00 am. The test were carried out in the light cycle (between 9:00 am and 3:00 pm).
During the so-called dietetic period, the animals are partially fasted, since the famish drive is used for learning. Therefore animals are kept on a diet consisting of 2 piece of standard feed pellet/day for one week. After one week, the body weight of the animals reaches approximately 80 to 85% of that of the normally fed animals.
During the acclimatizing period, the animals are placed in the maze for 10 minutes on the first two days. Each feed container is filled with a small piece of biscuit. Animals are provided with feed after visiting the maze only.
During the learning period, which lasts for 10 to 12 days, the animal should learn to find all pieces of biscuits in the maze and to avoid entering those arms are which have already been visited. After spending five minutes in the maze, the animals are returned into their cages where the daily feed portion is served.
The aim of the selection phase performed after the learning phase is that only those animals would be selected to participate the experiment which have learned the task, i.e. which animal errs maximum once from three trials (TE<=1 and ICR>=7, t<=5 minutes). The movement of the animal was monitored using a video camera, which was set up in the neighboring room.
During the actual testing, the animals were divided into three groups: C (control), S (scopolamine) and T (test). The animals of group C as absolute controls were treated i.p. with a vehicle (0.4% methylcellulose, pre-treatment time 40 minutes) and subcutaneously with solvent (saline, pre-treatment time: 30 minutes). Groups S was treated i.p. with a vehicle and subcutaneously with 0.5 mg/kg scopolamine. […] Group T was treated intraperitoneally with 0.01 mg/kg dose of 4-chloro-5-{2-[4-(6-fluoro-1,2-benz[d]isoxazole-3-yl)piperidin-1-yl]ethyl-amino}-2-methyl-3-(2H)pyridazinone or 0.01 mg/kg risperidone, respectively and with 0.5 mg/kg dose of scopolamine subcutaneously.
During the testing, the animals were placed in the maze individually, and their movement was monitored using a video camera. When the animals completed their task, they were removed from the maze.
The evaluation of the results comprised the determination of the following variables: number of initial correct answers; number of total errors (TE error); number of arms which were entered multiple occasions (WM error), number of arms which were not entered (RM error), number of arms entered before the first error (ICR). […] The RM error indicates the damage of the reference memory, since the animal cannot recall which arms should be entered (in the present test, all of them).
The statistical evaluation was carried out by variance analysis. The differences between groups were determined by Duncan-test.

[3] = 0.01 mg/kg ip 30 minutes after surgery
[4] = 0.03 mg/kg ip 30 minutes after surgery
[5] = 0.1 mg/kg ip 30 minutes after surgery
[6] = 0.3 mg/kg ip 30 minutes after surgery
[7] = 0.01 mg/kg intraperitoneally + 0.5 mg/kg scopolamine
[8] = scopolamine 0.5 mg/kg alone (group S, vehicle i.p.)

Row | Compound | Dead cerebral volume mm^3 ± SE (Male SPRD rats [1]; [3]) | Effect % (Male SPRD rats [1]; 0.01 mg/kg ip) | cerebral infarct size (Male SPRD rats [1]; 0.03 mg/kg i.p.) | Dead cerebral volume mm^3 ± SE (Male SPRD rats [1]; [4]) | Effect % (Male SPRD rats [1]; 0.03 mg/kg ip) | Dead cerebral volume mm^3 ± SE (Male SPRD rats [1]; [5]) | Effect % (Male SPRD rats [1]; 0.1 mg/kg ip) | Dead cerebral volume mm^3 ± SE (Male SPRD rats [1]; [6]) | Effect % (Male SPRD rats [1]; 0.3 mg/kg ip) | ICR (number of initial correct responses) (Male SPRD rats [2]; [7]) | TE (number of total errors) (Male SPRD rats [2]; [7]) | WME (number of working memory errors) (Male SPRD rats [2]; [7]) | degradation of memory resulting from scopolamine treatment (Male SPRD rats [2]) | cerebral infarct size (Male SPRD rats [1]; dosage range 0.01-0.3 mg/kg ip.) | TE (number of total errors) (Male SPRD rats [2]; [8]) | WME (number of working memory errors) (Male SPRD rats [2]; [8])
1 | Cn1ncc(NCCN2CCC(c3noc4cc(F)ccc34)CC2)c(Cl)c1=O [Formula (I), 4-chloro-5-{2-[4-(6-fluoro-1,2-benz[d]isoxazole-3-yl)piperidine-1-yl]ethyl-amino}-2-methyl-3-(2H)pyridazinone] | 64.33 ± 7.66 mm^3 | 0% | decreased the cerebral infarct size in statistically significant manner | 45.70 ± 4.11 mm^3 | −29% | 62.63 ± 4.86* mm^3 | −15% | 61.79 ± 2.69* mm^3 | −16% | 6 ± 0.4 | 2.3 ± 0.5^+ | 1.5 ± 0.5^+ | significantly prevented the degradation of memory |  |  | 
2 | Cc1nc2n(c(=O)c1CCN1CCC(c3noc4cc(F)ccc34)CC1)CCCC2 [Risperidone, 3-(2-(4-(6-fluoro-1,2-benz[d]isoxazole-3-yl)-1-piperidinyl)-ethyl)-6,7,8,9-tetrahydro-2-methyl-4H-pyrido[1,2-a]pyrimidin-4-one] | 65.91 ± 6.08 mm^3 | −1% |  | 69.09 ± 5.71 mm^3 | 4% | 62.17 ± 5.17 mm^3 | −8% | 72.07 ± 5.48 mm^3 | 7% |  | 6.0 ± 0.3 | 4.2 ± 0.3 | did not show a significant effect | ineffective |  | 
3 | CN1[C@@H]2C[C@@H](OC(=O)[C@H](CO)c3ccccc3)C[C@H]1[C@@H]1O[C@@H]12 [Scopolamine] |  |  |  |  |  |  |  |  |  |  |  |  |  |  | 5.6 ± 0.9 | 4.6 ± 1.2

Like-named read-outs stand apart in the source and are kept apart here. Marks after values point to notes of the source that are not given here.
